Laboratory results as given in publication PMC6925443.
These are yes or no findings as the source states them, for the method shown. In cells and extracts the contact can be indirect. Some binding calls cover weakened binding; strength is not graded here.

Chains of the proteins cited; added tags and fusions are not shown. Residues count along the entry.
UniProt P28799, residues 18-593: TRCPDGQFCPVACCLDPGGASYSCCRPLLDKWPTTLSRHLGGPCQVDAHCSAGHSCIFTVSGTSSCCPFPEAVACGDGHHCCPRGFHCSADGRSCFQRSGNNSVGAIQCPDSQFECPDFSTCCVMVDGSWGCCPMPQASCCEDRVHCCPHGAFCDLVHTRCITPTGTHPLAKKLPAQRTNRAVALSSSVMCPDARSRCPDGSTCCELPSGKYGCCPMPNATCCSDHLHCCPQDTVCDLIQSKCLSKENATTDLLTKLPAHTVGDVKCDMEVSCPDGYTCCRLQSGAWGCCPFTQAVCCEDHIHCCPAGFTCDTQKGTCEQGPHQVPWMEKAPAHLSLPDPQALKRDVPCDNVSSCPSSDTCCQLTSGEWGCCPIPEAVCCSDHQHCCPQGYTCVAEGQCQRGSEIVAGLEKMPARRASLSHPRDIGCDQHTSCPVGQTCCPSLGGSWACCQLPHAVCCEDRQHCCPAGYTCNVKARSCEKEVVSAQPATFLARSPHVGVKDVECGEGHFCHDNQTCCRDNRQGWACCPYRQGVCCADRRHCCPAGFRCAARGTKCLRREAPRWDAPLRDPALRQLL
UniProt Q99523, residues 78-831: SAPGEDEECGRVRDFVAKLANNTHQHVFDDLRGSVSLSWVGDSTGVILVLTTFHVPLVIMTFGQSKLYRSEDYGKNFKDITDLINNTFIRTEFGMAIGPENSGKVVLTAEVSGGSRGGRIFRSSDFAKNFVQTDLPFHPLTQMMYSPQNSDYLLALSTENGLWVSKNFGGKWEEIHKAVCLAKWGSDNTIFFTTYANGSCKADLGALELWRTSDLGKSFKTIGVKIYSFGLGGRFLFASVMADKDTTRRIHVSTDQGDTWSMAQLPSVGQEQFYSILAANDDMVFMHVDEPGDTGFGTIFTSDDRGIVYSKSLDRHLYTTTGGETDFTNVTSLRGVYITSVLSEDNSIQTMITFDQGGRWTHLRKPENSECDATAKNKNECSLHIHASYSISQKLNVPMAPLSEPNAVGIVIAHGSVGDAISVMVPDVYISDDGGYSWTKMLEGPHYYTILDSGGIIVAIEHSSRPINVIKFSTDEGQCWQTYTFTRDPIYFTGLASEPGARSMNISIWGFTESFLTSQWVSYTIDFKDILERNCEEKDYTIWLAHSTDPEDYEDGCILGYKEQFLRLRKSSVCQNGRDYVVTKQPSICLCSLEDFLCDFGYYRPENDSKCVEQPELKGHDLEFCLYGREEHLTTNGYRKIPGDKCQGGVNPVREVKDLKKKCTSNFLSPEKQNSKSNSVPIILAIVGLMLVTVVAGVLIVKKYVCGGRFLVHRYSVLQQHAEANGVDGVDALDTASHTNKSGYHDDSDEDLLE
UniProt P56817, residues 46-501: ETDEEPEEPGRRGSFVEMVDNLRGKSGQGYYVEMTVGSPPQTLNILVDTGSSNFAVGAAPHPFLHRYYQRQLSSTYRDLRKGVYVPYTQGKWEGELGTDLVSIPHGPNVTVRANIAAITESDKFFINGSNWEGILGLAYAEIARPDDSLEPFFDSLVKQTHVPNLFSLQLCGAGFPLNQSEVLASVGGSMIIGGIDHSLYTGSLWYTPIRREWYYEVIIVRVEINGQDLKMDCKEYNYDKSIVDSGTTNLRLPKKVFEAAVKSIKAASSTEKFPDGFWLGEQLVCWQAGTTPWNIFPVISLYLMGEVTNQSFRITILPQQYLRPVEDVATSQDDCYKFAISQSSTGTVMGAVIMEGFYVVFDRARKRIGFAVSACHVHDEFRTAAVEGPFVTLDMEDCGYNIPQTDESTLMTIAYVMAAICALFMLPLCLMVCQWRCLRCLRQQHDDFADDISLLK
UniProt Q9NUM4: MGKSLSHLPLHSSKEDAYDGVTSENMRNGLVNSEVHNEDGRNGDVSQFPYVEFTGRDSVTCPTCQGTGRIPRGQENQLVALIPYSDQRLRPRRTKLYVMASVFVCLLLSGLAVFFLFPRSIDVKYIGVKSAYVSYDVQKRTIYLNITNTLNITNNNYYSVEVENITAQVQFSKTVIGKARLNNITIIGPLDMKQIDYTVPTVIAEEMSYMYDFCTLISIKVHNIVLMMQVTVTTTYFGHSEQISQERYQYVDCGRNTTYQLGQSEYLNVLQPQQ

T1: Prosaposin (PSAP) (human (endogenous in brain tissue)) (UniProt P07602)
T1 sequence: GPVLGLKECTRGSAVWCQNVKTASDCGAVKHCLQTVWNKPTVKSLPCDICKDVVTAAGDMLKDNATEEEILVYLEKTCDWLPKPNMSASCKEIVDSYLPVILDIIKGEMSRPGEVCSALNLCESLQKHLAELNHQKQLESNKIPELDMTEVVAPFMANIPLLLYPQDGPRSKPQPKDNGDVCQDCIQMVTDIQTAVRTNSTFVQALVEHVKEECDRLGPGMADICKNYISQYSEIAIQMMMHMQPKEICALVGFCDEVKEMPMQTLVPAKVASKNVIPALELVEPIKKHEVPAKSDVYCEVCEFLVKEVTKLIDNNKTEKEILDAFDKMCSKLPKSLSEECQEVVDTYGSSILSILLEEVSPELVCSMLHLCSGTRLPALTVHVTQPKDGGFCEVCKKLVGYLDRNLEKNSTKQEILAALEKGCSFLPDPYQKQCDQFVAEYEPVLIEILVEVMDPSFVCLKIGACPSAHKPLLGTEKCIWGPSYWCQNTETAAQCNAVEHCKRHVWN

T2: Prosaposin (PSAP) of HEK cells (human (endogenous in HEK)) (UniProt P07602)
T2 sequence: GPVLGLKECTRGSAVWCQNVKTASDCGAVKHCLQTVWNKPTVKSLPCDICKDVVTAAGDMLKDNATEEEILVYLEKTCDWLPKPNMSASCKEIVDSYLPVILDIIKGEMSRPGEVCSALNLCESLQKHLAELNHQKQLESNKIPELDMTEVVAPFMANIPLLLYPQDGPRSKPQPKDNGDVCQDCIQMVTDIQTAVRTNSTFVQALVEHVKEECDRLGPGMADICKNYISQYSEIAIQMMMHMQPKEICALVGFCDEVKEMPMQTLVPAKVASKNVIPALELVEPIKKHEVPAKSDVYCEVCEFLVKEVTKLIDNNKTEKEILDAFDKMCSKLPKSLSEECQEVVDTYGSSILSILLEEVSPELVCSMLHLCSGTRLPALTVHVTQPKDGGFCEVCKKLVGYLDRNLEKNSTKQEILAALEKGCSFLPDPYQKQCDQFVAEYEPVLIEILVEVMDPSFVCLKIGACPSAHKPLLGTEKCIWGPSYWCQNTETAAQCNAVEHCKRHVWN

B1: Prosaposin (PSAP) (protein, UniProt P07602 17-524)
chain: GPVLGLKECTRGSAVWCQNVKTASDCGAVKHCLQTVWNKPTVKSLPCDICKDVVTAAGDMLKDNATEEEILVYLEKTCDWLPKPNMSASCKEIVDSYLPVILDIIKGEMSRPGEVCSALNLCESLQKHLAELNHQKQLESNKIPELDMTEVVAPFMANIPLLLYPQDGPRSKPQPKDNGDVCQDCIQMVTDIQTAVRTNSTFVQALVEHVKEECDRLGPGMADICKNYISQYSEIAIQMMMHMQPKEICALVGFCDEVKEMPMQTLVPAKVASKNVIPALELVEPIKKHEVPAKSDVYCEVCEFLVKEVTKLIDNNKTEKEILDAFDKMCSKLPKSLSEECQEVVDTYGSSILSILLEEVSPELVCSMLHLCSGTRLPALTVHVTQPKDGGFCEVCKKLVGYLDRNLEKNSTKQEILAALEKGCSFLPDPYQKQCDQFVAEYEPVLIEILVEVMDPSFVCLKIGACPSAHKPLLGTEKCIWGPSYWCQNTETAAQCNAVEHCKRHVWN
B2: Prosaposin (PSAP) of HEK cells (protein, UniProt P07602 17-524)
chain: GPVLGLKECTRGSAVWCQNVKTASDCGAVKHCLQTVWNKPTVKSLPCDICKDVVTAAGDMLKDNATEEEILVYLEKTCDWLPKPNMSASCKEIVDSYLPVILDIIKGEMSRPGEVCSALNLCESLQKHLAELNHQKQLESNKIPELDMTEVVAPFMANIPLLLYPQDGPRSKPQPKDNGDVCQDCIQMVTDIQTAVRTNSTFVQALVEHVKEECDRLGPGMADICKNYISQYSEIAIQMMMHMQPKEICALVGFCDEVKEMPMQTLVPAKVASKNVIPALELVEPIKKHEVPAKSDVYCEVCEFLVKEVTKLIDNNKTEKEILDAFDKMCSKLPKSLSEECQEVVDTYGSSILSILLEEVSPELVCSMLHLCSGTRLPALTVHVTQPKDGGFCEVCKKLVGYLDRNLEKNSTKQEILAALEKGCSFLPDPYQKQCDQFVAEYEPVLIEILVEVMDPSFVCLKIGACPSAHKPLLGTEKCIWGPSYWCQNTETAAQCNAVEHCKRHVWN

Columns and labels:
[1] = target: T1, Prosaposin (PSAP) (human (endogenous in brain tissue)); assay: co-IP; RIPA extracts of human middle temporal gyrus (200 ug, centrifuged 14,000 g/30 min); 2 ug goat anti-PGRN or rabbit anti-PSAP on protein G or protein A magnetic beads; 18 h at 4 C; washed three times with RIPA; eluted without reducing agent at 80 C; western blot
[2] = target: Progranulin (PGRN) (human (endogenous in brain tissue)) (UniProt P28799); assay: as above
[3] = target: T2, Prosaposin (PSAP) of HEK cells (human (endogenous in HEK)); assay: co-IP; RIPA extracts of PGRN-overexpressing HEK cells (100 ug); 2 ug goat anti-PGRN or rabbit anti-PSAP on protein G or protein A magnetic beads; 18 h at 4 C; washed three times with RIPA; eluted without reducing agent at 80 C; western blot
[4] = target: PGRN protein fused with a green fluorescent protein sequence (UniProt P28799); assay: as above

Row | Molecule | binding [1] | binding [2] | further results
1 | Progranulin (PGRN) (from UniProt P28799 18-593) | binds | – | –
2 | Sortilin (from UniProt Q99523 78-831) | binds weakly | – | –
3 | beta-secretase-1 (BACE-1) (from UniProt P56817 46-501) (enzyme) | binds | no binding | –
4 | PGRN protein fused with a green fluorescent protein sequence (from UniProt P28799 18-593) | – | – | binding [3]: binds
5 | TMEM106B (from UniProt Q9NUM4 1-274) | no binding | no binding | –
6 | B1 | – | binds | –
7 | B2 | – | – | binding [4]: binds
